According to PMC4336329 (PLoS ONE, 2015):
Screen size: about 310,000 compounds; about 2,200 (0.71%) showed an effect of 50% or more. Effects have a minus sign here. Some of the results follow.

Each compound was assayed against human ether-à-go-go-related gene (hERG) potassium channel (human, UniProt Q12809) (assay: primary screen, population patch clamp on CHO cells stably expressing hERG).
human ether-à-go-go-related gene (hERG) potassium channel, sequence (Q12809 whole entry, looked up): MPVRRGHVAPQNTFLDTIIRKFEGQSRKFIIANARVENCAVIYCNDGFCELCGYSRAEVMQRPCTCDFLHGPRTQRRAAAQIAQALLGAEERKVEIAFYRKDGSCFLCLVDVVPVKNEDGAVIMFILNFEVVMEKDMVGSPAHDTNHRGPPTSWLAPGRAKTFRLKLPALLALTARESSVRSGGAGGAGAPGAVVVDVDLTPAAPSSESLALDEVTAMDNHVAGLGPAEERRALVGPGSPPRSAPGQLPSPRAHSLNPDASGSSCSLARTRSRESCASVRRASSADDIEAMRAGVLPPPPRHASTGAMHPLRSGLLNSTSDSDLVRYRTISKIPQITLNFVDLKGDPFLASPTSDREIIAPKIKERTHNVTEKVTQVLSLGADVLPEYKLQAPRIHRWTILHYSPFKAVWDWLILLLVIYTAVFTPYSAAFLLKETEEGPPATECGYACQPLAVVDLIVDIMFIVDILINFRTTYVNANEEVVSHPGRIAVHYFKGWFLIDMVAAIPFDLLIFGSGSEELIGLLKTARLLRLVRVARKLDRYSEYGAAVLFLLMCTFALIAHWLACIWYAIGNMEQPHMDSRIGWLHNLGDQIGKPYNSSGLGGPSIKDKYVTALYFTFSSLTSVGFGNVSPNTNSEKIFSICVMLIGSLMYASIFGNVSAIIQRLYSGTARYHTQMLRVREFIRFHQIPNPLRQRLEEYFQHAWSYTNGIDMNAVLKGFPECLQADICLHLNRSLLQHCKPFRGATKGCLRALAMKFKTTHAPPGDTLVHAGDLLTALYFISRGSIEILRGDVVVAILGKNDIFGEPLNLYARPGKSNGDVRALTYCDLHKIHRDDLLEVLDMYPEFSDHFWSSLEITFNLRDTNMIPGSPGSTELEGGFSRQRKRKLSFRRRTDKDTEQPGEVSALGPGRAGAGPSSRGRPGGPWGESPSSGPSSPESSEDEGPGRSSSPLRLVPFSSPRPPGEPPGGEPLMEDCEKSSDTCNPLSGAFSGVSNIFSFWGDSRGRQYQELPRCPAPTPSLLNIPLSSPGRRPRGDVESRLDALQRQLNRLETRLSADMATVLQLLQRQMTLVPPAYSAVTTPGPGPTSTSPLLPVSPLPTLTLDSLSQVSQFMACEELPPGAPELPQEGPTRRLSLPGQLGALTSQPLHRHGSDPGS

Question: With `CN(C(=O)COC(=O)c1ccc2ccccc2n1)C1CCS(=O)(=O)C1` (centres unmarked) as the compound, how does the “hERG current change (%, negative = inhibition) at 1uM” value read?
Answer: The value was 14.7%.

Question: Which “hERG current change (%, negative = inhibition) at 1uM” value does the source give for `C[C@H](NC(=O)C1(c2ccccc2)CCN(C(=O)OC(C)(C)C)CC1)C(=O)N[C@@H](C(=O)O)c1ccccc1` here?
Answer: The value was 3.36%.

Question: `CSc1ccccc1NC(=O)Cc1ccccc1[N+](=O)[O-]` was tested. Which “hERG current change (%, negative = inhibition) at 1uM” value did it give?
Answer: Its value is 13.1%.

Question: Which “hERG current change (%, negative = inhibition) at 1uM” value does the source give for `CCOCCCNC(=O)c1cc(Cl)c(NC(=O)C2=C(C)OCCS2)cc1OC` here?
Answer: The value was 5.85%.

Question: Which “hERG current change (%, negative = inhibition) at 1uM” value does the source give for `Cc1ccc(S(=O)(=O)c2nc(C)oc2N2CCOCC2)cc1` here?
Answer: Its value is 10.3%.

Question: Which “hERG current change (%, negative = inhibition) at 1uM” value does the source give for `CN1CCCN(Cc2cccc3ccccc23)CC1` here?
Answer: Its value is 15.4%.

Question: With `CC(=O)c1c(C)[nH]c(C(=O)OCc2ccc(F)cc2Cl)c1C` as the compound, how does the “hERG current change (%, negative = inhibition) at 1uM” value read?
Answer: Its value is 10.6%.

Question: Which “hERG current change (%, negative = inhibition) at 1uM” value does the source give for `Cc1cc2nc3n(c2cc1C)CC1CC(C(=O)NCCc2cccs2)N(C)C31` (centres unmarked) here?
Answer: The value was -21.2%.

Question: How did the “hERG current change (%, negative = inhibition) at 1uM” value turn out when `COCC(=O)N1CCC(n2nnc3cc(C(F)(F)F)ccc32)CC1` was run?
Answer: The value was 1.88%.

Question: How did the “hERG current change (%, negative = inhibition) at 1uM” value turn out when `COc1ccc(CNC(=O)c2ccc(C(C)(C)C)cc2)cc1` was run?
Answer: The value was 17.7%.

Question: With `CC(C)(C)c1ccc(C(=O)Oc2ccccc2CCC(=O)O)cc1` as the compound, how does the “hERG current change (%, negative = inhibition) at 1uM” value read?
Answer: The value was 15.7%.

Question: `COc1cccc(NC(=O)Cn2cnc3c(oc4nc5c(cc43)CCCC5)c2=O)c1` was tested. Which “hERG current change (%, negative = inhibition) at 1uM” value did it give?
Answer: The value was 5%.

Question: For `COC(=O)c1ccccc1NC(=O)CN1CCCCCC1`, which “hERG current change (%, negative = inhibition) at 1uM” value is on record?
Answer: The value was 16.5%.

Question: Which “hERG current change (%, negative = inhibition) at 1uM” value does the source give for `Cc1ccc(Nc2cc(=O)[nH]c(=O)[nH]2)cc1Cl` here?
Answer: The value was 5.1%.

Question: For `COc1ccc(/C=c2/sc3n(c2=O)C(c2ccccc2OC)C2=C(N=3)c3ccccc3CC2)cc1O` (centres unmarked), which “hERG current change (%, negative = inhibition) at 1uM” value is on record?
Answer: Its value is 6.5%.

Question: Which “hERG current change (%, negative = inhibition) at 1uM” value does the source give for `Cn1c(SCc2ccccc2)nnc1-c1c[nH]c2ccccc12` here?
Answer: Its value is 14.8%.

Question: For `CCCN1CCN(C(=O)CCCNC(=O)c2ccc(Cl)cc2)CC1`, which “hERG current change (%, negative = inhibition) at 1uM” value is on record?
Answer: The value was 4.33%.

Question: `Cc1c(C)c2ccc(OCC(=O)N3C[C@H]4C[C@@H](C3)c3cccc(=O)n3C4)cc2oc1=O` was tested. Which “hERG current change (%, negative = inhibition) at 1uM” value did it give?
Answer: The value was 10.7%.

Question: How did the “hERG current change (%, negative = inhibition) at 1uM” value turn out when `O=c1c(C/C=C/c2ccccc2)c(O)ccn1Cc1cccc(Cl)c1` was run?
Answer: The value was 10.4%.

Question: For `COc1ccc(NC(=O)CCNS(=O)(=O)c2ccc3c(c2)c(=O)n(C)c(=O)n3C)cc1OC`, which “hERG current change (%, negative = inhibition) at 1uM” value is on record?
Answer: Its value is 16%.

Question: `Cc1cc(C)c2oc(C(=O)N(Cc3ccc(F)cc3)C3CCS(=O)(=O)C3)cc(=O)c2c1` (centres unmarked) was tested. Which “hERG current change (%, negative = inhibition) at 1uM” value did it give?
Answer: Its value is 9.61%.

Question: How did the “hERG current change (%, negative = inhibition) at 1uM” value turn out when `CC1(C)CC(=O)C(CC2C(=O)CC(C)(C)CC2=O)C(=O)C1` was run?
Answer: The value was 12.1%.

Question: Which “hERG current change (%, negative = inhibition) at 1uM” value does the source give for `COc1cc(NC(=O)C/C(C)=N/NC(=O)C(=O)NC2CCCCC2)c(OC)cc1Cl` here?
Answer: The value was -66.8%.

Question: For `CCc1c(C(=O)Nc2ccncc2)csc1C`, which “hERG current change (%, negative = inhibition) at 1uM” value is on record?
Answer: The value was -1.35%.

Question: Which “hERG current change (%, negative = inhibition) at 1uM” value does the source give for `CN(Cc1ccccc1)C(=O)C1CCCN(Cc2cccc(Cl)c2)C1.O=C(O)C(=O)O` (centres unmarked) here?
Answer: The value was 11.7%.

Question: `O=c1cc(-c2ccc([N+](=O)[O-])cc2)nc2cc(-c3ccc(Cl)cc3)[nH]n12` was tested. Which “hERG current change (%, negative = inhibition) at 1uM” value did it give?
Answer: The value was 14.4%.

Question: For `C=CCCO[C@@H]1O[C@@H](C)[C@H](O)C[C@H]1O`, which “hERG current change (%, negative = inhibition) at 1uM” value is on record?
Answer: Its value is 12.5%.

Question: `Cc1onc(-c2c(Cl)cccc2Cl)c1C(=O)c1c[nH]c(C(=O)NC2CC2)c1` was tested. Which “hERG current change (%, negative = inhibition) at 1uM” value did it give?
Answer: Its value is 14.9%.

Question: How did the “hERG current change (%, negative = inhibition) at 1uM” value turn out when `CC(C)c1ccc(NC2CCCN(C(=O)CCN3CCOCC3)C2)cc1` (centres unmarked) was run?
Answer: The value was 16.8%.

Question: With `CC(=O)Nc1nc(C)c(Oc2ccc(Cl)cc2Cl)c(=O)[nH]1` as the compound, how does the “hERG current change (%, negative = inhibition) at 1uM” value read?
Answer: Its value is 11.4%.

Question: Which “hERG current change (%, negative = inhibition) at 1uM” value does the source give for `COc1cc(CNCCN2CCOCC2)ccc1OCc1ccccc1Cl.Cl` here?
Answer: The value was -0.385%.

Question: With `COc1ccc(CCN2C(=O)CSC2c2cccc([N+](=O)[O-])c2)cc1OC` (centres unmarked) as the compound, how does the “hERG current change (%, negative = inhibition) at 1uM” value read?
Answer: The value was 11.4%.

Question: With `CCn1c(SCC(=O)NCc2cccs2)nnc1-c1cccs1` as the compound, how does the “hERG current change (%, negative = inhibition) at 1uM” value read?
Answer: The value was -6.66%.

Question: For `COc1ccc(/C=C(\NC(=O)c2ccco2)C(=O)N2CCOCC2)cc1`, which “hERG current change (%, negative = inhibition) at 1uM” value is on record?
Answer: The value was 12.3%.

Question: With `NC(=O)C1(N2CCCCC2)CCN(C(=O)c2ccccc2)CC1` as the compound, how does the “hERG current change (%, negative = inhibition) at 1uM” value read?
Answer: The value was 5.81%.

Question: Which “hERG current change (%, negative = inhibition) at 1uM” value does the source give for `CCOc1ccccc1C(=O)Nc1ccccc1O` here?
Answer: Its value is 12.9%.

Question: Which “hERG current change (%, negative = inhibition) at 1uM” value does the source give for `CCN(CC)c1ccc(/C=C2/C(=O)NC(=O)N(CC3CCCO3)C2=O)cc1` (centres unmarked) here?
Answer: Its value is 4.4%.

Question: Which “hERG current change (%, negative = inhibition) at 1uM” value does the source give for `COC(=O)c1c(NC(=O)C(C)(C)C)sc2c1CCN(Cc1ccccc1)C2.Cl` here?
Answer: Its value is -3.68%.

Question: With `O=C(CSc1nncn1-c1ccccc1)Nc1cc(F)ccc1F` as the compound, how does the “hERG current change (%, negative = inhibition) at 1uM” value read?
Answer: Its value is 22.7%.

Question: How did the “hERG current change (%, negative = inhibition) at 1uM” value turn out when `CC(C)(C)C(=O)NC(=S)Nc1ccc(C(F)(F)F)cc1` was run?
Answer: Its value is 15.3%.

Question: Which “hERG current change (%, negative = inhibition) at 1uM” value does the source give for `CCC(NS(=O)(=O)c1ccc2c(c1)Cc1cc(S(=O)(=O)NC(CC)C(=O)O)ccc1-2)C(=O)O` (centres unmarked) here?
Answer: The value was 17.7%.

Question: How did the “hERG current change (%, negative = inhibition) at 1uM” value turn out when `C=CCn1c(NCc2ccccc2O)nc2ccccc21` was run?
Answer: Its value is 13.5%.

Question: How did the “hERG current change (%, negative = inhibition) at 1uM” value turn out when `Cc1sc2nc(CN3CCCC3)nc(N3CCN(S(=O)(=O)c4cccs4)CC3)c2c1C` was run?
Answer: The value was -65.2%.

Question: For `COc1ccc2cc(CN(CCO)C(=O)c3ccccc3F)c(=O)[nH]c2c1`, which “hERG current change (%, negative = inhibition) at 1uM” value is on record?
Answer: Its value is 8.12%.

Question: How did the “hERG current change (%, negative = inhibition) at 1uM” value turn out when `CC(=O)c1cccc(Nc2cc(C)nc3c(C)cccc23)c1.Cl` was run?
Answer: Its value is -16.9%.

Question: How did the “hERG current change (%, negative = inhibition) at 1uM” value turn out when `Cl.OCCCN1CCN(CCCOc2ccccc2-c2ccccc2)CC1` was run?
Answer: The value was -57.7%.

Question: Which “hERG current change (%, negative = inhibition) at 1uM” value does the source give for `COc1ccc(-c2nnc(NC(=O)c3ccccc3C)o2)cc1` here?
Answer: The value was 12.2%.

Question: With `COc1cccc(-c2nn(-c3ccc(C)cc3)cc2C(=O)N(C)CC(=O)Nc2cccc(F)c2)c1` as the compound, how does the “hERG current change (%, negative = inhibition) at 1uM” value read?
Answer: The value was 5.25%.

Question: How did the “hERG current change (%, negative = inhibition) at 1uM” value turn out when `Cl.Oc1ccccc1CNCc1ccccc1` was run?
Answer: Its value is 11.3%.

Question: How did the “hERG current change (%, negative = inhibition) at 1uM” value turn out when `CCCc1ccc(-c2cc(N)n[nH]2)cc1` was run?
Answer: The value was 18.3%.

Question: For `COc1ccc([C@H]2CC(=O)C=C(c3c(C)cc(C)cc3C)C2)cc1`, which “hERG current change (%, negative = inhibition) at 1uM” value is on record?
Answer: Its value is 11.6%.

Question: How did the “hERG current change (%, negative = inhibition) at 1uM” value turn out when `O=C(CN(Cc1ccccc1Cl)C(=O)c1csnn1)NC1CCCC1` was run?
Answer: The value was -5.99%.

Question: How did the “hERG current change (%, negative = inhibition) at 1uM” value turn out when `CC(=O)Nc1ccccc1OCc1cnc(Cl)s1` was run?
Answer: Its value is 11.9%.

Question: `COc1ccc([N+](=O)[O-])cc1NC(=O)c1ccc(N2C(=O)CCC2=O)cc1` was tested. Which “hERG current change (%, negative = inhibition) at 1uM” value did it give?
Answer: The value was 12.9%.

Question: How did the “hERG current change (%, negative = inhibition) at 1uM” value turn out when `O=C(Cc1ccc(Cl)cc1)Nc1ccccc1N1CCN(C(=O)c2ccccc2)CC1` was run?
Answer: Its value is -18.5%.

Question: For `O=C(CCN1C(=O)/C(=C\c2ccco2)SC1=S)Nc1ccc(C(=O)O)c(O)c1`, which “hERG current change (%, negative = inhibition) at 1uM” value is on record?
Answer: The value was 10.1%.
